Measurements published in patent US20230310414A1.

Legend:
[1] = tested on: SARS-CoV-2 Spike (S) protein treated human macrophages; format: cell-based
[2] = tested on: SARS-CoV-2 Spike (S) protein treated human macrophages; assay: apoptosis by caspase 3 activation in Spike protein treated macrophages; format: cell-based; details: within 2 hours of treatment

| Structure (SMILES) | expression of cytokine modulators IL-10 and IFN-γ [1] | expression of pro-inflammatory cytokines IL-1a, VEGF, IL-1β, IL-2, IL-4, IL-5, IL-6, IL-8, IL-12p70, IL-13, GM-CSF, GRO, MCP-1, MIP-1α, MIP-1p, MMP-9, RANTES, and TNF-α [1] | expression of the anti-inflammatory cytokine IL-10 [1] | pro-inflammatory cytokines such as IL-1β, TNF-α, IL-6 IL-8, IL-12, MCP-1 and MIP-1α [1] | anti-inflammatory cytokines such as IL-10 [1] | pro-inflammatory cytokines VEGF, IL-6, IL-8, MIP-1α and MIP-1β [1] | apoptosis by activation of caspase 3 [2] |
| --- | --- | --- | --- | --- | --- | --- | --- |
| O.O=C(OC[C@H]1O[C@@H](OC(=O)c2cc(O)c(O)c(O)c2)[C@H](OC(=O)c2cc(O)c(O)c(O)c2)[C@@H](OC(=O)c2cc(O)c(O)c(O)c2)[C@@H]1OC(=O)c1cc(O)c(O)c(O)c1)c1cc(O)c(O)c(O)c1 | activated expression | inhibited expression | increasing expression | suppressed |  |  |  |
| COc1ccc2cc1Oc1ccc(cc1)C[C@H]1c3cc(c(OC)cc3CCN1C)Oc1c(OC)c(OC)cc3c1[C@H](C2)N(C)CC3 [tetrandrine, (1S,14S)-9,20,21,25-tetramethoxy-15,30-dimethyl-7,23-dioxa-15,30-diazaheptacyclo[22.6.2.2^3,6.1^8,12.1^14,18.0^27,31.0^22,33]hexatriaconta-3(36),4,6(35),8,10,12(34),18,20,22(33),24,26,31-dodecaene] |  |  |  |  | inducing | selectively inhibited | selectively induces apoptosis |
